Test results reported in PubChem BioAssay AID588342 (National Center for Advancing Translational Sciences (NCATS), 2011).
In all, about 360,000 compounds went through this assay and about 25,000 (6.9%) were called active. Inconclusive results, whose numbers are uncertain, are shown with a selection of clear calls. The call rests on the fitted dose curve; in most records, active means well fitted inhibition curve with a large enough effect; inconclusive means small, poorly fitted or top-dose-only effect; inactive means flat fitted curve, though single readings scatter. Where the call is inconclusive, the potency comes from a doubtful curve fit.

Target: Luciferin 4-monooxygenase (Photinus pyralis) (UniProt P08659)
Sequence of UniProt P08659 (P08659 whole entry, looked up): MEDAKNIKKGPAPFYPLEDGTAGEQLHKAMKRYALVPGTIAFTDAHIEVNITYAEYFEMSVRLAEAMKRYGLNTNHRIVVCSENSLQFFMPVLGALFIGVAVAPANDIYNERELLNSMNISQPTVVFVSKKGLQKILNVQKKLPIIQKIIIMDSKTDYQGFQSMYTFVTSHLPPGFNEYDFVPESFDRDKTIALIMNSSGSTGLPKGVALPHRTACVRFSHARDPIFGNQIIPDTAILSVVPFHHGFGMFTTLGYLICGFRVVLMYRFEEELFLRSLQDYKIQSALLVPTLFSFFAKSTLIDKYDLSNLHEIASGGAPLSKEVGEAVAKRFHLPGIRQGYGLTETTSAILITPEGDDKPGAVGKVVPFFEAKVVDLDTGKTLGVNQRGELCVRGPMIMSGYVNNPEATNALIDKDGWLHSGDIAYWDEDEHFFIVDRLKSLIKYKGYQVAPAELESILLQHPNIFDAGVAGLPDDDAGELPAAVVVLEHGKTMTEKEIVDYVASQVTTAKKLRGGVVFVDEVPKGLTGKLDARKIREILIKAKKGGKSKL
Experiment: qHTS profiling assay for firefly luciferase inhibitor/activator using purifed enzyme and Km concentrations of substrates (counterscreen for miR-21 project); further: nearly all actives have a fitted effect of over 55% in size;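 on activity change, negative = inhibition: plate controls were vehicle for no effect and reference inhibitor for full effect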
Conditions: purified FLuc, luminescence inhibition; activity change, negative = inhibition: at 57.5 µM (top of the series)
Summary of the method: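 Biochemical qHTS of compounds, final roughly 60 µM downward over six points, against 10 nM purified firefly luciferase using Km concentrations of substrates (10 uM D-luciferin, 10 uM ATP) in Tris acetate pH 7.5 buffer; luminescence output.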
Potency means the concentration at half of the fitted maximal effect; tags describe the fitted curve by direction and shape.

SMILES	Potency	activity change, negative = inhibition
COc1ccc(C(=O)n2nc(-c3ccco3)nc2NCc2cccs2)cc1OC	inconclusive: 23.9 µM [inhibitor, partial curve, poor fit]	–
Cc1ccc(-c2nc3sc(CCNC(=O)c4ccc(C)c(C)c4)c(C)n3n2)cc1	inconclusive: 5.36 µM [inhibitor, single point]	–
CCC(=O)NC(c1ccco1)c1cc(Cl)c2cccnc2c1O (stereo not drawn)	inconclusive: 21.3 µM [inhibitor, partial curve, poor fit]	–
Cc1cc(C)n(/N=C/c2ccccc2O)c(=O)c1	inconclusive: 37.9 µM [inhibitor, partial curve, poor fit]	–
CCOc1ccc(C(=O)NCC(=O)N2CCCCCCC2)cc1	–	inactive: -3.27%
CCCc1nc2sc3c(c2c(=O)[nH]1)CCCC3	inconclusive: 15.1 µM [inhibitor, partial curve, poor fit]	–
COc1ccc(C2=NS(=O)(=O)N(C)C(C(=O)Nc3ccc(OC)c(OC)c3)=C2)cc1	inconclusive: 26.9 µM [inhibitor, single point]	–
O=C(CN1C(=O)CCc2cc(S(=O)(=O)N3CCOCC3)ccc21)NCc1ccccc1	–	inactive: -0.847%
COc1ccc(-c2nc(CSc3nncn4c3cc3sccc34)c(C)o2)cc1OC	–	inactive: 0.863%
CCN(CC)S(=O)(=O)c1ccc(-c2cn3ccc(C)cc3n2)cc1	active: 2.39 µM	–
CCC(=O)NC1(Cc2ccc(O)cc2)CCCCC1	–	inactive: -1.18%
CN1CCN(c2ccc(NC(=O)COc3ccccc3Cl)cc2)CC1	inconclusive: 37.9 µM [inhibitor, single point]	–
Cc1ccc(CC(=O)O/N=C(\N)c2ccncc2)cc1	inconclusive: 19 µM [inhibitor, partial curve, poor fit]	–
CNS(=O)(=O)c1cccc(C(=O)OCC(=O)Nc2sc3c(c2C#N)CCCCC3)c1	inconclusive: 23.9 µM [inhibitor, single point]	–
Cc1ccc(S(=O)(=O)N(C)C)cc1NC(=O)CN1C(=O)NC2(CCCCCCC2)C1=O	–	inactive: 4.43%
Cc1cc(C)n(-c2nncc(-c3ccccc3)n2)n1	inconclusive: 33.8 µM [inhibitor, single point]	–
Cc1ccc(OCC(=O)Nc2ccc3c(c2)OCO3)c([N+](=O)[O-])n1	active: 6.01 µM	–
CCN(Cc1ccncc1)C(=O)c1cc(COc2ccc(F)cc2Cl)on1	–	inactive: -0.128%
CC(=O)N1CCc2c(sc3c2c(=O)n(CCc2ccccc2)c(=O)n3Cc2ccc(Cl)cc2)C1	–	inactive: 6.41%
CCCCn1cnc2c(cnn2-c2ccc(F)cc2)c1=O	inconclusive: 23.9 µM [inhibitor, partial curve]	–
Cc1cccc(C)c1NC(=O)c1cn(-c2ccccc2)nc1-c1ccccc1	inconclusive: 15.1 µM [inhibitor, partial curve, poor fit]	–
CCOCCCNc1ncnc2c1cnn2-c1ccc(C)c(C)c1	active: 10.7 µM	–

SMILES	Potency	activity change, negative = inhibition
CCOC(=O)Cc1csc(SCC(=O)Nc2sc3c(c2C(N)=O)CCC3)n1	inconclusive: 19 µM [inhibitor, partial curve, poor fit]	–
CCOc1ccc(N2C(=O)C(Cl)=C(Nc3ccccc3O)C2=O)cc1	inconclusive: 21.3 µM [inhibitor, partial curve]	–
CC1=CC(C)(C)N(C)C(=O)N1c1ccc(Cl)cc1	inconclusive: 26.9 µM [inhibitor, partial curve, poor fit]	–
CC(C)c1ccc(S(=O)(=O)/N=C2/C=CC(=O)c3ccccc32)cc1	inconclusive: 37.9 µM [inhibitor, single point]	–
CCc1ccc(NC(=O)c2ccc3[nH]c(C)c(C)c3c2)cc1	inconclusive: 30.1 µM [inhibitor, partial curve, poor fit]	–
CN(C)CCOCCP(=O)(c1ccccc1)c1ccccc1	–	inactive: 5.67%
O=C(Nc1sc2c(c1C(=O)NCc1ccco1)CCCC2)c1ccc2c(c1)OCO2	active: 12 µM	–
Cc1ccc2nc3c(cc2c1)c(NC(=O)c1cccnc1)nn3C	inconclusive: 6.75 µM [inhibitor, full curve]	–
COc1ccc(N2CC(O)=C(c3nc(-c4ccc(F)cc4)cs3)C2=N)cc1OC	inconclusive: 37.9 µM [inhibitor, single point]	–
O=C(COC(=O)C1CCC1)Nc1ccc(Oc2ccccc2)cc1	inconclusive: 21.3 µM [inhibitor, partial curve]	–
Cc1ccc2c(c1)-c1c(cnc3cc(-c4ccccc4)nn13)CO2	inconclusive: 21.3 µM [inhibitor, partial curve, poor fit]	–
CCCCc1ccc(NC(=O)c2ccc(=O)n(Cc3cccc(C)c3)c2)cc1	inconclusive: 9.53 µM [inhibitor, partial curve, poor fit]	–
Cc1cc(C(=O)COC(=O)CC2Sc3ccccc3NC2=O)c(C)n1-c1ccc2c(c1)OCO2 (stereo not drawn)	inconclusive: 21.3 µM [inhibitor, single point]	–
COc1ccc(/C=C2\SC(=S)N(N3CCOCC3)C2=O)c(OC)c1	inconclusive: 16.9 µM [inhibitor, partial curve, poor fit]	–
Cc1ccc2nc(NC(=O)C3CCN(S(=O)(=O)c4cnc[nH]4)CC3)sc2c1	inconclusive: 23.9 µM [inhibitor, partial curve, poor fit]	–
CCOc1ccc(/C=N/Nc2nc(=O)[nH]nc2C)cc1OC	–	inactive: -11.4%
COc1ccc(-c2c3c(=O)n(C)c(=O)n(C)c3c3c(C)nc4ccccc4n23)cc1	inconclusive: 16.9 µM [inhibitor, partial curve, poor fit]	–
CCCc1cc(-c2nc(-c3ccc(Br)cc3)cs2)ccn1	inconclusive: 26.9 µM [inhibitor, partial curve]	–
CC(C)(C)c1ccc(-c2nc(SCCCOc3ccccc3)n3[nH]c(=O)cc3n2)cc1	inconclusive: 26.9 µM [inhibitor, single point]	–
Cc1ccc(-c2nnc(SCc3cccc(C#N)c3)o2)cc1	inconclusive: 16.9 µM [inhibitor, partial curve]	–
Cc1ccc(NC(=O)CSc2nnc(-c3ccco3)c(-c3ccco3)n2)cc1	inconclusive: 19 µM [inhibitor, partial curve]	–
